{"source": "patent US5827073A", "about": "“Photoreactive peptide derivatives” (Ludwig Institute for Cancer Research, priority 1995, dated 1998)", "tested_on": "HLA-A1", "test": "HLA-A1 photoaffinity labelling of HLA-A1 transfected C1R cells with radioiodinated peptide derivative", "assay_type": "binding, human", "conditions": "densitometry", "procedure": "All photoaffinity labelling procedures were performed essentially as described by Luescher et al., J. Immunol., 148:1003-011 (1992); Luescher et al., Nature, 351:72-74 (1991); Romero et al., J. Exp. Med., 177:1247-1256 (1993); Luescher et al., J. Biol. Chem., 269:5574-5592 (1994); and Romero et al., J. Immunol. Methods, 171:73-84 (1994). Briefly, HLA-A1 transfected C1R cells, cultured in hygromycin containing medium, or other cell types were resuspended in DMEM medium supplemented with 0.5% fetal calf serum, 10 mM HEPES and 0.25 μg/ml human β2-microglobulin, or as specified, at 6 ×10^6 cells/ml. […]\nAfter UV irradiation with a 15 W mercury fluorescence lamp with an emission maximum at 365 nm and a band width of 80 nm for 4 minutes at a lamp-sample distance of 2 cm, the cells were washed 4 times with DMEM containing 2% calf serum and 1 time with PBS. […] Immunoprecipitation of HLA molecules with immobilized W6/32 mAb (Brodsky et al., J. Immunol., 128:129-135 (1982) and SDS-PAGE analysis of the immunoprecipitate were performed as described by Luescher et al., Electrophoresis, 8:508 (1987). The gels were evaluated by autoradiography and in some experiments by densitometry as described by Luescher et al., J. Immunol., 148:1003-1011 (1992). Each labelling experiment was performed at least twice. […]"}
{"substance": "Glu Ala Asp Pro Thr Gly Xaa Ile [SEQ ID NO: 7, MAGE-1 peptide derivative as printed]", "values": [{"measurement": "increase of binding to C1R/A1-associated HLA-A1", "setting": "presence of excess exogenous human β2-microglobulin", "result": 3.3, "unit": "fold"}, {"measurement": "increase of binding to C1R/A1-associated HLA-A1", "setting": "reduced temperature (26° C. vs 37° C.)", "result": 2.3, "unit": "fold"}]}
